Test results as given in PubChem BioAssay AID1347073 (National Center for Advancing Translational Sciences (NCATS), 2019).
About 200 (0.44%) of roughly 45,000 compounds were called active. Inconclusive results (about 7%) are left out. The call rests on the fitted dose curve; in most records, active means well fitted activation curve with a large enough effect; inconclusive means small, poorly fitted or top-dose-only effect; inactive means no such curve, though single readings can be large or run the other way. The list shows a part of the results.

Assay: qHTS of TDP-43 Inhibitors: NCGC Sytravon Library Screen; further: 0% is about no effect; nearly all actives have a fitted effect of over 55% in size
Settings: yeast TDP-43 toxicity rescue, BacTiter-Glo growth, 24 h; series mostly up to 46.1 µM; growth rescue (activation): at the top concentration
In short: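 TDP-43-expressing yeast, pregrown in raffinose, seeded at OD600 0.02 in galactose medium with compound for 24 hr at 30 deg C. Growth read by BacTiter-Glo luminescence, so rescue of toxicity appears as activation.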

Structure (SMILES)	growth rescue (activation)
O=C1CN(C(=O)CNCc2ccccc2)c2ccccc2N1	inactive: -18.3%
Cc1cc2ccccn2c1C(=O)c1ccc([N+](=O)[O-])cc1[N+](=O)[O-]	inactive: -2.43%
Cc1csc(=Nc2c(C)n(C)n(-c3ccccc3)c2=O)n1Cc1ccccc1	inactive: 5.02%
CC(=O)Oc1ccc(C(=O)Nc2cc(NC(=O)c3ccc(OC(C)=O)cc3)cc(C(=O)NC(C)(C)C)c2)cc1	inactive: 7.98%
CC1CCN(C(=O)CC(NC(N)=O)c2ccccc2Cl)CC1 (configuration not stated)	inactive: -14.4%
CCN(CC)c1ccc(/C=N/NC(=O)Cc2ccc(OC)c(OC)c2)cc1	inactive: 6.91%
Cc1[nH]c(=O)[nH]c(=O)c1NS(=O)(=O)c1ccccc1	inactive: -8.14%
CC(C(=O)Nc1cc([N+](=O)[O-])ccc1Cl)N1CCN(c2ccccc2)CC1 (configuration not stated)	inactive: -8.53%
Nc1nc(NCCO)nc(NCc2ccccc2)c1[N+](=O)[O-]	inactive: -0.418%
CCOc1ccc(C2C3=C(CCCC3=O)N(CC(=O)O)C3=C2C(=O)CCC3)cc1	inactive: 5.67%
COc1cccc(-c2cnc(C(O)c3cc(Cl)cc(Cl)c3)[nH]2)c1 (configuration not stated)	inactive: -0.257%
NS(=O)(=O)c1ccc(CNC(=O)c2cccc(Oc3ccccc3)c2)cc1	inactive: -21.7%
CCOc1ccc(CC2S/C(=N/N=C/c3ccco3)NC2=O)cc1 (configuration not stated)	inactive: -7.64%
CCc1ccc(-c2csc3ncn(CC(=O)NCc4ccco4)c(=O)c23)cc1	inactive: 9.68%
O=C(OCc1cccc([N+](=O)[O-])c1)c1cccnc1Cl	inactive: 13.6%
COP(C)(=O)c1c(C)nn(-c2ccccc2)c1C (configuration not stated)	inactive: -8.3%
CCOc1cc(NC(=O)C2CC2)c(OCC)cc1NC(=O)c1ccccc1OCC	inactive: 23.6%
CC1(C(=O)NS(=O)(=O)c2cccc(F)c2)CCN1C(=O)C/C=C/c1ccccc1 (configuration not stated)	inactive: -8.4%
COc1ccc(CNC(=O)C2CCCN(C(=O)Nc3ccc(OC)cc3)C2)cc1 (configuration not stated)	inactive: 9.27%
COc1cc(OC)c(NC(=O)NC(C)c2c(-n3cccc3)sc(C)c2C)cc1Cl (configuration not stated)	inactive: 3.94%
COc1ccc(NC(=O)C2CCC(CNS(=O)(=O)c3cccs3)CC2)cc1 (configuration not stated)	inactive: -7.32%
O=C(Nc1ccccc1-c1nnn(CC(=O)N2CCOCC2)n1)c1ccc(F)cc1	inactive: -2.6%
Fc1ccc(NC(=S)N2CCCCC2)cc1	inactive: 22.9%

Structure (SMILES)	growth rescue (activation)
CCc1nnc(N2CCN(c3ncnc4c3oc3ccccc34)CC2)s1	inactive: -4.11%
CCOc1ccc(N(CC(=O)Nc2ccc(OC)cc2)S(=O)(=O)c2c(C)[nH]c(=O)[nH]c2=O)cc1	inactive: -7.4%
COc1ccc(C(=O)Nn2cnnc2)cc1OC	inactive: -5.96%
Cc1ccccc1-n1cc(CNC(=O)C2CCC(=O)N(C3CC3)C2)cn1 (configuration not stated)	inactive: -8.24%
O=C(O)c1cc(-c2cccs2)nn1-c1ccc(F)cc1	inactive: -0.226%
CCOc1ccc(N(CCCCO)C(=S)NC(=O)c2ccc(C)c(Br)c2)cc1	inactive: 10.6%
N#Cc1ccc(OCc2c(-c3ccccc3)nnn2CC(=O)O)cc1	inactive: 8.7%
COc1ccc(OC)c(NC(=O)C2(C)CCN2Cc2ccsc2)c1 (configuration not stated)	inactive: 1.54%
CC(=O)Nc1cccc(-c2ccnc3c2CC(C)(C(=O)NCc2cccs2)O3)c1 (configuration not stated)	inactive: 3.17%
Cc1ccc(C(=O)NCCc2ccc(S(N)(=O)=O)cc2)o1	inactive: -1.35%
C=CCC(C(=O)NC(C)c1ccccc1)C(=O)NC(C)c1ccccc1 (configuration not stated)	inactive: -2.11%
O=C(Nc1ccc(Cl)cc1)Nc1nnc(/C=C/c2ccccc2)s1	inactive: 19.2%
CC(=O)Nc1ccc(NC(=O)CCNS(=O)(=O)c2cccc3nsnc23)cc1	inactive: 6.77%
COc1cc(/C=C2/C(=O)ON=C2C)cc(Cl)c1O	inactive: -11.3%
CC(Sc1ccc(Cl)cc1)C(=O)Nc1ccccc1-c1ccccc1 (configuration not stated)	inactive: -10.1%
CCOc1ccc2c(c1)C(c1ccc(C)o1)=NNC(c1ccncc1)=N2	inactive: 9.88%
N#C/C(=C/C1=C(N2CCOCC2)C(=C/c2ccccc2)/CC1)C(=O)Nc1ccccc1F	inactive: 12.1%
CCOC(=O)c1cc(C#N)c(N2CCN(c3ccccn3)CC2)nc1-c1ccccc1	inactive: -20.7%
Cc1ccc2nc(NC(=O)C3CCCN3C(=O)OC(C)(C)C)sc2c1 (configuration not stated)	inactive: 18.9%
FC(F)(F)c1nnc(-c2ccccc2)nc1N1CCCC1	inactive: 4.06%
Cc1c(C(=O)OCC(=O)NCC2CCCO2)oc2ccccc12 (configuration not stated)	inactive: 1.36%
COc1ccc(C(C)=O)cc1Cn1nc(C)c([N+](=O)[O-])c1C	inactive: 14.8%
Cc1cc(NC(=O)COC(=O)C2CC(=O)N(c3ccc(Br)cc3)C2)no1 (configuration not stated)	inactive: 4.18%

Structure (SMILES)	growth rescue (activation)
O=C(NCc1ccc(F)c(F)c1)C1Cc2c(-c3ccc4c(c3)OCO4)ccnc2O1 (configuration not stated)	inactive: -1.4%
CC1=Nc2ccc3ccccc3c2C1(C)C	inactive: 25.3%
CCOc1c(Cl)cc(CNc2nnnn2C)cc1OC	inactive: 7.95%
CC(=O)N(C)c1ccc(NS(=O)(=O)c2cc(Cl)ccc2Cl)cc1	inactive: 4.76%
CC(=O)OC(C)C(=O)NS(=O)(=O)c1ccc(C)cc1 (configuration not stated)	inactive: -12.7%
CC(=O)c1cccc(Nc2c([N+](=O)[O-])c(=O)oc3ccccc23)c1	inactive: 4.96%
O=C(N/N=C/c1cc([N+](=O)[O-])ccc1O)c1cc(-c2ccccc2)nc2ccccc12	inactive: 22.3%
Cn1c(=O)[nH]c(=O)c2c1nc(N1CCOCC1)n2CCc1ccccc1	inactive: 0.517%
COc1ccc(CNC(=O)Cc2csc3ccccc23)cc1OC	inactive: 10.6%
COC(=O)c1ccc(COc2ccc(-c3nnn(CC(N)=O)n3)cc2)cc1	inactive: 11.2%
COc1cc(Br)c(/C=C(\C#N)c2nc3ccccc3[nH]2)cc1OC	inactive: -1.29%
O=C(CNC(=O)/C(=C\c1ccccc1)NC(=O)c1ccc(Br)cc1)OCc1ccccc1	inactive: 16%
COc1ccc([N+](=O)[O-])cc1NC(=O)Cc1ccc(C)cc1	inactive: -0.0452%
CC(NCc1ccc(OCc2ccc(Cl)cc2)cc1)C(O)c1ccccc1 (configuration not stated)	inactive: 26.6%
O=C(Cc1ccccc1)NNC(=O)c1ccc(NC(=O)c2ccccc2)cc1	inactive: -3.43%
COc1ccc([N+](=O)[O-])cc1NC(=O)c1cn(-c2ccc(C)c(C)c2)c(=O)c2ccccc12	inactive: -1.36%
CC1CCCCN1CC(=O)Nc1ccc2c(c1)OC(F)(F)O2 (configuration not stated)	inactive: -4.06%
O=C(OCC(=O)c1c[nH]c2ccccc12)c1ccc([N+](=O)[O-])s1	inactive: -93.5%
O=C(Nc1cc(S(=O)(=O)N2CCOCC2)ccc1Cl)c1ccncc1	inactive: 0.0883%
Cc1oc2nc(SCCCC(=O)NCCCO)nc(N)c2c1C	inactive: -0.704%
Cc1c(N2C(=O)/C(=C/c3ccc(N(C)C)cc3)N(C)C2=S)c(=O)n(-c2ccccc2)n1C	inactive: -16.3%
